Assay results taken from paper PMC4336329 (PLoS ONE, 2015).
The campaign covered roughly 310,000 compounds. About 14,000 (4.5%) showed an effect of 50% or more. The effect is printed as a negative number. This is one part of the list.

biological target: human ether-à-go-go-related gene (hERG) potassium channel (human, UniProt Q12809); experiment: primary screen, population patch clamp on CHO cells stably expressing hERG
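Note: peak tail current of the secondary pulse compared with the same well before compound.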

Chain of human ether-à-go-go-related gene (hERG) potassium channel (Q12809 whole entry, looked up): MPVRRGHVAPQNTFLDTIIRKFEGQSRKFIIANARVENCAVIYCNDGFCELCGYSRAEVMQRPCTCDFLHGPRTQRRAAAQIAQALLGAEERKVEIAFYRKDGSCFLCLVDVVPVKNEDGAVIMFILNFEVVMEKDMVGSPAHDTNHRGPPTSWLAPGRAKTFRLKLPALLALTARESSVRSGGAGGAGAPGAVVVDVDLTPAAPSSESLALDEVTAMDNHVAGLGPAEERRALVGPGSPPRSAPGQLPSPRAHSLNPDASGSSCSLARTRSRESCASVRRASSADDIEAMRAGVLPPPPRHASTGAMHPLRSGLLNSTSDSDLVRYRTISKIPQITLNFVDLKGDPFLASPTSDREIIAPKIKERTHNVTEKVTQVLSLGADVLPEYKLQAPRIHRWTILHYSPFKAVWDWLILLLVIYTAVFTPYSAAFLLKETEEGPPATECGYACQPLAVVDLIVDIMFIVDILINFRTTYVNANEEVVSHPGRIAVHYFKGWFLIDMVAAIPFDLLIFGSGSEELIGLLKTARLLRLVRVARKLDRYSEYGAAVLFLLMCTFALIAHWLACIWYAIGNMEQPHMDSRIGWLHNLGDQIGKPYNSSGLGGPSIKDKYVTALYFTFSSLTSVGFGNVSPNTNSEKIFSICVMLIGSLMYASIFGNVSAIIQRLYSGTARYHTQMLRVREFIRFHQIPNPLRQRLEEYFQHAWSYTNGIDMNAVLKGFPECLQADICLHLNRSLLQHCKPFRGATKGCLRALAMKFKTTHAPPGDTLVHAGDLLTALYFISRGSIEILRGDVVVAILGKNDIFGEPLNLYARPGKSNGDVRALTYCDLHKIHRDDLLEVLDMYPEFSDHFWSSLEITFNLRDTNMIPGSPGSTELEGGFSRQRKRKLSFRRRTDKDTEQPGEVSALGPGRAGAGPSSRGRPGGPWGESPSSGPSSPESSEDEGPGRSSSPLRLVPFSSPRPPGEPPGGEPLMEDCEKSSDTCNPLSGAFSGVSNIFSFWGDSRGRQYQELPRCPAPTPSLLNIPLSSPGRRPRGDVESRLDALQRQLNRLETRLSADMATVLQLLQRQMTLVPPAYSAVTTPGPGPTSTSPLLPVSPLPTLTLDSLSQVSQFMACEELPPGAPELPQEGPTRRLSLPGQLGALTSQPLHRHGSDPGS

Structure (SMILES) | hERG current change (%, negative = inhibition) at 10uM [%]
CCOC(=O)C1CCN(C(=O)Nc2ccc(NC(=O)C3CCN(C(=O)OCC)CC3)cc2)CC1 | -38.9
O=C(N=Nc1c(O)[nH]c2ccc(Cl)cc12)c1cc(-c2cccs2)nc2ccccc12 | 8.57
Cc1ccc2c(c1)N(CC(=O)NC1CCC(C)CC1)C(=O)CO2 (stereo not shown) | -10.1
COC(=O)[C@H](C)NC(=O)Nc1ccccc1F | -2.78
O=C(Nc1ccc2nn(-c3ccccc3)nc2c1)c1ccco1 | 7.51
COC(=O)COc1cccc2c(=O)n(CC(=O)Nc3ccc4c(c3)OCCO4)ccc12 | 17.3
CCOC(=O)c1c(NC(=O)c2ccccc2N(C)S(=O)(=O)c2ccccc2)sc2c1CCCC2 | 6.96
CCOc1ccc(CN(C)C(C)C(=O)NCc2ccccc2)cc1 (stereo not shown) | -54.8
O=C(CSc1nnc2scc(-c3ccccc3)n12)c1ccc2c(c1)OCCO2 | 6.86
CC(=O)Oc1ccc(N(C(C)=O)S(=O)(=O)c2ccc(C)cc2)c2ccccc12 | -1.12
COc1ccc(-c2[nH]ncc2[C@@H]2C[C@H]3CN(Cc4ccccc4C)C(=O)[C@]34CCCN24)cc1 | -51.7
Cc1ccccc1CN1C(=O)CSc2ccc(C(=O)N3CCOCC3)cc21 | -4.17
CCOC(=O)N1CCN(Cc2cccs2)CC1 | 24.3
NC(=O)COc1ccc(NC(=O)OCc2ccccc2)cc1 | -0.303
O=C(c1cccnc1)N1CCC(Oc2ccc(C(=O)N3CCCCO3)cc2)CC1 | 3.97
CC(=O)c1ccc(C(=O)N2CCCC(Nc3ccc(C(C)C)cc3)C2)s1 (stereo not shown) | -7.8
CCOC(=O)N1CCN(C(=O)C(=O)Nc2ccc3nc4n(c(=O)c3c2)CCCCC4)CC1 | 3.36
O=C(Cn1nc(-c2ccc(Cl)cc2)ccc1=O)NCCCN1CCN(Cc2ccccc2)CC1 | -64.2
Cc1cc(C)n(CCNCc2c(C(=O)N3C[C@@H](C)O[C@@H](C)C3)nc3ccc(Cl)cn23)n1 | 12.3
O=C(Cn1c(=O)c2cccn2c2ccc(F)cc21)NCCCN1CCN(c2ccccc2F)CC1 | -50.5
CCOC(=O)Cc1csc(NC(=O)CCCN2C(=O)c3ccccc3C2=O)n1 | 12.2
COC(=O)c1ccncc1N | 12.4
C=CCc1cccc2cc(C(=O)N3CCN(c4ccccn4)CC3)c(=O)oc12 | -38.9
CCOC(=O)CSc1nc(=O)n2ccc(C)cc2n1 | 12.1
CCC(C)Sc1nnc(NC(=O)c2ccco2)s1 (stereo not shown) | 3.24
CC(C)Cn1c(-c2ccc(F)cc2)n[nH]c1=S | 10.7
O=C(c1cnn2c(C(F)F)cc(-c3ccccc3)nc12)N1CCOCC1 | -10.4
COc1ccccc1CN1CCN(Cc2ccco2)CC1.O=C(O)C(=O)O | -1.98

Structure (SMILES) | hERG current change (%, negative = inhibition) at 10uM [%]
CCOC(=O)c1c(C)c(C(=O)NCc2cccs2)c(C)n1CC | -3.39
COc1ccc(CNC(=O)CCCn2nc(C)n3ccnc3c2=O)cc1 | 8.86
CCOc1cc(/C=N/NC(=O)CN2CCOCC2)ccc1OCc1ccc(Cl)cc1 | -14
COC(=O)C1=C(c2cccc(OC)c2OC)C[C@@H]2CC[C@H]1N2C | -6.68
CCCc1[nH]nc2c1C(/C(C)=C/c1ccccc1)C(C#N)=C(N)O2 (stereo not shown) | -3.25
C/C(N)=C(/C#N)C(=O)COC(=O)C1Cc2ccccc2CN1S(C)(=O)=O (stereo not shown) | 5.45
O=C(Cn1c(=O)oc2ccccc21)Nc1ccc(Cl)cc1 | 16.7
CC(=O)Nc1ccc2nc(CN3CCN(CC(C)C)C(CCO)C3)ccc2c1 (stereo not shown) | 17
COCCNC(=O)Nc1ccc(F)cc1 | -11
O=C(CCSc1nc(-c2ccco2)cc(C(F)(F)F)n1)Nc1ccc2c(c1)OCO2 | 9.4
Fc1cccc(Cl)c1-c1nnc2ccc3ccccc3n12 | 10.3
CC(=O)N1CCc2cc(Br)cc(S(=O)(=O)NCCCN3CCCC(C)C3)c21 (stereo not shown) | -0.85
CCN(CC)CCN(C(=O)c1ccc(C(=O)c2ccccc2)cc1)c1nc2ccc(OC)cc2s1.Cl | -45.9
O=C(OCC1OC(n2cnc3c(N(C(=O)c4ccccc4)C(=O)c4ccccc4)ncnc32)C(O)C1F)c1ccccc1 (stereo not shown) | -9.47
COc1ccccc1N(CC(=O)N/N=C/c1c(O)ccc2ccccc12)S(C)(=O)=O | 18.3
CN(C)CCN(C(=O)c1ccco1)c1nc2cc3c(cc2s1)OCCO3.Cl | -32.8
Cc1onc(-c2ccccc2Cl)c1C(=O)Nc1ccc(F)c(F)c1 | -6.23
Cc1ccc(SCC(=O)c2c(C)nc3ccccn23)cc1 | 30.8
O=C(CN(Cc1cccs1)S(=O)(=O)c1ccc(S(=O)(=O)N2CCCCC2)cc1)Nc1ccccc1 | 9.5
O=C(Oc1cccc2cccnc12)c1cccc(-n2cnnn2)c1 | 14.4
Cc1ccc(NC(=O)C(Nc2ccccc2)c2ccccc2)cc1 (stereo not shown) | -5.85
CCN(CC)c1ccc(C=O)c(OC)c1 | -9.16
CC(=O)COc1ccc2c(C)c(C)c(=O)oc2c1 | 0.254
CCN(CC(=O)NC1CCS(=O)(=O)C1)S(=O)(=O)c1c(C)c(C)cc(C)c1C (stereo not shown) | -3.39
COc1cccc(/C=N/Nc2ncnc3scc(-c4ccccc4)c23)c1OC | -1.08
C=CCSc1nc2c(c(=O)[nH]c(=O)n2C)n1C(C)C | 2.71
CC(C)[C@H]1COCCS(=O)(=O)N1Cc1cccc(Cl)c1 | 0.8
